Source: PubChem BioAssay (NCATS)
The shares of active, inactive and inconclusive entries below differ from those in the screen. Potencies beside an inconclusive call are fits to weak or partial responses and may not hold up. Active and inactive are the calls of the source. Calls follow the shape of the dose curve; as a rule, active = well fitted inhibition curve with a large enough effect; inconclusive = small, poorly fitted or top-dose-only effect; inactive = flat fitted curve, though single readings scatter.

Test: Primary qHTS for inhibitors of nuclear receptor binding SET domain protein 2 (NSD2) in an isogenic RCH-ACV NSD2 p.E1099K mutant (9B) (AID 1645876); also: nearly all actives have a fitted effect of over 70% in size
Details: RCH-ACV (leukaemia line) NSD2 E1099K (9B) viability, CellTiter-Glo, 72 h; series mostly up to 44.9 µM
% is scaled to controls: 0 for no effect and ±100 for the full control effect; potency is read from the fitted curve at half-maximal effect; tags tell the direction and shape of the fitted curve.

**Q.** For `Nc1nc(F)nc2c1ncn2[C@@H]1O[C@H](COP(=O)(O)O)[C@@H](O)[C@@H]1O`, which Potency is on record?
**A.** The Potency was active: 1860 nM.

**Q.** Which Potency does the source give for `CCOC(=O)N1CCN(C(=O)Cn2sc3nc(C)cc(C)c3c2=O)CC1` here?
**A.** The Potency was inconclusive: 16400 nM [inhibitor, single point].

**Q.** Which Potency does the source give for `CC(C)(O)CS(=O)(=O)Nc1ccc2c(c1)CCN(C(=O)COc1cccnc1)C2` here?
**A.** Its Potency is active: 37.2 nM.

**Q.** Which Potency does the source give for `CC(=O)N[C@H]1CSSC[C@@H](C(N)=O)NC(=O)[C@H](C(C)C)NC(=O)[C@H](C)NC(=O)[C@H](Cc2cnc[nH]2)NC1=O` here?
**A.** The Potency was inconclusive: 29500 nM [inhibitor, single point].

**Q.** For `O=C(CCNC(=O)c1ccc(OC(F)(F)F)cc1)N[C@@H]1CCCc2ccccc21`, which Potency is on record?
**A.** The Potency was “inactive”.

**Q.** Which Potency does the source give for `Cc1nc(C)c(CN2CCN(C(c3ccc(F)cc3)c3ccc(F)cc3)CC2)nc1C` here?
**A.** The Potency was inconclusive: 20900 nM [inhibitor, partial curve].

**Q.** Which Potency does the source give for `COc1ccc(C2C(C(=O)O)C(C(=O)O)C2c2ccc(OC)cc2O[C@@H]2O[C@H](CO)[C@@H](O)[C@H](O)[C@H]2O)c(O[C@@H]2O[C@H](CO)[C@@H](O)[C@H](O)[C@H]2O)c1` (stereo partly drawn) here?
**A.** Its Potency is “inactive”.

**Q.** Which activity change, negative = viability loss does the source give for `CN(C)CCNC(=O)COc1c2cccc1Cc1cccc(c1OCC(=O)NCCN(C)C)Cc1cccc(c1OCC(=O)NCCN(C)C)Cc1cccc(c1OCC(=O)NCCN(C)C)C2` here?
**A.** The activity change, negative = viability loss was inactive: 4.69% [at 9.23 µM].

**Q.** With `NS(=O)(=O)c1ccc(S(=O)(=O)Nc2cccc3c(Cl)c[nH]c23)cc1` as the compound, how does the Potency read?
**A.** Its Potency is active: 742 nM.

**Q.** With `COc1ccnc2[nH]cc(C(=O)C(=O)N3CCN(C(=O)c4ccccc4)C[C@H]3C)c12` as the compound, how does the Potency read?
**A.** The Potency was “inactive”.

**Q.** Which activity change, negative = viability loss does the source give for `CN1CCN(C(=O)[C@H]2[C@@H](C(=O)O)[C@H]3CC[C@@H]2O3)CC1` here?
**A.** Its activity change, negative = viability loss is inactive: 9.83% [at 9.23 µM].

**Q.** Which Potency does the source give for `Cn1c(-c2ccccc2C(F)(F)F)nnc1C12CCC(c3noc(C4CC(F)(F)C4)n3)(CC1)CC2` here?
**A.** Its Potency is “inactive”.

**Q.** Which Potency does the source give for `O=C1/C(=C/c2ccc(O)c(O)c2)Oc2ccccc21` here?
**A.** The Potency was active: 1840 nM.
